The supplement of paper PMC4604168 (melanoma cell lines)
The list shows a part of the results. Single values are uncertain, as repeats are few or missing.

system: IST-MEL1; test: cell count relative to DMSO control; melanoma cells; higher = more viable cells; conditions: library dose: low library concentration; 72 h
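Note: cell number obtained by counting DAPI-stained nuclei in high-throughput microscope images with image analysis software, screen run in 1,536-well plates.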

Row | SMILES | cell count [%]
1 | CC(=O)O[C@@]12CO[C@@H]1C[C@H](O)[C@@]1(C)C(=O)[C@H](O)C3=C(C)[C@@H](OC(=O)[C@H](O)[C@@H](NC(=O)OC(C)(C)C)c4ccccc4)C[C@@](O)([C@@H](OC(=O)c4ccccc4)[C@H]21)C3(C)C [Docetaxel] + O=S(=O)(c1ccccc1)N(CC(F)(F)F)c1ccc(C(O)(C(F)(F)F)C(F)(F)F)cc1 [T0901317] (first compound 0.0001 µM, partner dose 1.4 µM) | 73.4
2 | Nc1nc(F)nc2c1ncn2[C@@H]1O[C@H](CO)[C@@H](O)[C@@H]1O [fludarabine] + CCN(CC)CCCCNc1ncc2cc(-c3cc(OC)cc(OC)c3)c(NC(=O)NC(C)(C)C)nc2n1 [PD173074] (first compound 0.2 µM, partner dose 0.1 µM) | 84.6
3 | CC(=O)c1c(C)c2cnc(Nc3ccc(N4CCNCC4)cn3)nc2n(C2CCCC2)c1=O [palbociclib] + N#Cc1c(O)c2c(-c3ccc(-c4ccccc4O)cc3)csc2[nH]c1=O [A769662] (first compound 0.04 µM, partner dose 2 µM) | 78.6
4 | CC(=O)O[C@@]12CO[C@@H]1C[C@H](O)[C@@]1(C)C(=O)[C@H](O)C3=C(C)[C@@H](OC(=O)[C@H](O)[C@@H](NC(=O)OC(C)(C)C)c4ccccc4)C[C@@](O)([C@@H](OC(=O)c4ccccc4)[C@H]21)C3(C)C [Docetaxel] + Oc1cc(-c2nc(-c3ccccc3)[nH]c2-c2ccncc2)ccc1Cl [L779450] (first compound 0.0001 µM, partner dose 0.2 µM) | 62.5
5 | CC(=O)c1c(C)c2cnc(Nc3ccc(N4CCNCC4)cn3)nc2n(C2CCCC2)c1=O [palbociclib] + O=C(O)C(=O)Nc1sc2c(c1C(=O)O)CCNC2 [TCS401] (first compound 0.04 µM, partner dose 1.66667 µM) | 81.3
6 | Nc1ncn([C@H]2C[C@H](O)[C@@H](CO)O2)c(=O)n1 [decitabine] + COc1cc(N2CCC(N3CCN(C)CC3)CC2)ccc1Nc1ncc(Cl)c(Nc2ccccc2S(=O)(=O)C(C)C)n1 [NVP-TAE684] (first compound 0.1 µM, partner dose 0.08 µM) | 88.4
7 | CC(=O)c1c(C)c2cnc(Nc3ccc(N4CCNCC4)cn3)nc2n(C2CCCC2)c1=O [palbociclib] + CCCCCCCCCCCC1=C(O)C(=O)C=C(O)C1=O [Embelin] (first compound 0.04 µM, partner dose 1.2 µM) | 88.1
8 | CC(=O)O[C@@]12CO[C@@H]1C[C@H](O)[C@@]1(C)C(=O)[C@H](O)C3=C(C)[C@@H](OC(=O)[C@H](O)[C@@H](NC(=O)OC(C)(C)C)c4ccccc4)C[C@@](O)([C@@H](OC(=O)c4ccccc4)[C@H]21)C3(C)C [Docetaxel] + O=C1NC(=O)/C(=C/c2ccc(-c3ccc(F)cc3O)o2)S1 [AS252424] (first compound 0.0001 µM, partner dose 1 µM) | 57.5
9 | CC(=O)O[C@@]12CO[C@@H]1C[C@H](O)[C@@]1(C)C(=O)[C@H](O)C3=C(C)[C@@H](OC(=O)[C@H](O)[C@@H](NC(=O)OC(C)(C)C)c4ccccc4)C[C@@](O)([C@@H](OC(=O)c4ccccc4)[C@H]21)C3(C)C [Docetaxel] + O=c1cc(-c2cccc3c2Sc2ccccc2S3)oc(N2CCOCC2)c1 [KU55933] (first compound 0.0001 µM, partner dose 1 µM) | 65.7
10 | Nc1nc(F)nc2c1ncn2[C@@H]1O[C@H](CO)[C@@H](O)[C@@H]1O [fludarabine] + O=C(Nc1ccccc1)c1cc([N+](=O)[O-])ccc1Cl [GW9662] (first compound 0.2 µM, partner dose 2 µM) | 94.8
11 | Nc1ncn([C@H]2C[C@H](O)[C@@H](CO)O2)c(=O)n1 [decitabine] + COc1ccc2c(c1)CCC1C2CCC2(C)C(NCCCCCCN3C(=O)C=CC3=O)CCC12 [U73122] (first compound 0.1 µM, partner dose 0.4 µM) | 86.9
12 | Nc1ccn([C@@H]2O[C@H](CO)[C@@H](O)C2(F)F)c(=O)n1 [gemcitabine] + CCCCCCCCCCCC1=C(O)C(=O)C=C(O)C1=O [Embelin] (first compound 0.0004 µM, partner dose 1.2 µM) | 62.6
13 | Nc1ccn([C@@H]2O[C@H](CO)[C@@H](O)C2(F)F)c(=O)n1 [gemcitabine] + COC(=O)c1sccc1S(=O)(=O)Nc1ccc(Nc2ccccc2)cc1OC [GSK0660] (first compound 0.0004 µM, partner dose 1 µM) | 65.3
